Measurements reported in the supplement of paper PMC11417369.
This is one part of the list.

tested on: PfSIP2 AP2 domain 1 (GST-tagged); test: gcPBM binding intensity (ln(normalized median fluorescence intensity)); higher = stronger DNA binding
How it was run: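 DNA-binding domains from P. falciparum, fused to GST and produced in E. coli, were put on an Agilent 4 × 180k double-stranded probe array for 1 h in 1× PBS holding 1% milk, 0.2 mg/ml BSA, 0.5% salmon testes DNA and 0.03% Triton X-100. Probes were primer-extended, 36 bp long and drawn from intergenic genomic regions, with negative controls included. After Alexa488 anti-GST antibody detection and a 488 nm scan, binding intensity was set as the highest Masliner-normalised natural-log median intensity across replicate spots of either probe orientation.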

| Sequence | gcPBM binding intensity (ln) |
| --- | --- |
| ATATTAAATTCAATTTAATGTTTTGTGAATTTTAGA [CACACA_negctrl_site1421] | 6.66 |
| TTAAATGGAAAAATATGTACATATATATATATATTT [XGTACX_site2286] | 7.31 |
| TGAACTCATAGATTTAGTACATATATAAAAAAATTC [XGTACX_site1692] | 6.93 |
| TATACACGCGGACACACACACACACGCAAAAAAAAA [CACACA_site6377] | 7.47 |
| TAAAAACCAAAGAAAAGTACAAATTTAAATGAGAAA [XGTACX_site7450] | 6.88 |
| TTTACACCGTAATATGCATGTGTGTATATATTTTTG [TGCATGCA_site186] | 6.97 |
| ATAAGCCATTTTTGTGGTACATAAAATAGATATATA [XGTACX_site5175] | 6.83 |
| CATCTTAGTTTGAGTTGTACAATATTTATAAAAATA [XGTACX_site693] | 7.6 |
| ACAAGTTTAACATTTCGTACTTATTGTGTTTTTTTT [XGTACX_site5487] | 6.85 |
| ATATATATTTAAAGATGTACATAATGAAATGGTTAT [XGTACX_site4706] | 7.36 |
| GCAGTATTTCGGAACACACAAACATAAATATGTATT [CACACA_site2316] | 7.11 |
| ATATATATATATGTATGTACATATTTTTTTTAACAC [XGTACX_site8475] | 9.06 |
| GCACAATTTACACTTAAACACACAAAAAAAAATTAT [CACACA_site8642] | 7.39 |
| AGCACAGACGGACACACACACACACCCACAGACACA [CACACA_site4358] | 7.23 |
| AAATTTATTTATTATAGTACACTTAATACTACCCAA [XGTACX_site41] | 6.87 |
| TAGTTTTCTTAAAGATGTACTTATTAAAAATAAACT [XGTACX_site1001] | 7.08 |
| AATGATTGATTTTATTGTACGTACTCGGAATATGGT [XGTACX_site4976] | 7.35 |
| TATAGATAAATTATTTGTACTTATAAAATTATTATA [XGTACX_site2870] | 6.74 |
| GAATTTTAAATAAACATATAAACAGAAAAAAAAAAA [TGCATGCA_negctrl_site149] | 6.86 |
| TTATCTTACATATATCATTAAATCATATAACAAAAA [XGTACX_negctrl_site517] | 7.08 |
| AACCTCATGGACATATGTACACATATACAATTATTT [XGTACX_site6533] | 7.42 |
| CACAAATATACAAATACACACAAATATACGCATATA [CACACA_site2384] | 7.04 |

| Sequence | gcPBM binding intensity (ln) |
| --- | --- |
| CCTTTATAATTGGAAACACACATATAAAGTATATAT [CACACA_site3900] | 6.9 |
| GTTATATTTAAAATAGTGCAATAAAAATAATAATAT | 8.42 |
| TTATGTATTTTAAATGGTTTTATTATAAAGTTTAAT [CACACA_negctrl_site1470] | 6.81 |
| TACATAACTTTAATCACACACAAACAAACACATACA [CACACA_site6235] | 7.17 |
| ATATAATATATATACAAACACACAATTGTGTCCACA [CACACA_site1748] | 7.18 |
| AAAATACATGGACACACACACACACCGATATATATA [CACACA_site5885] | 7.4 |
| AAATATACATATATATGTACATATAAATATATTTTA [XGTACX_site5266] | 7.03 |
| TCTTACAAGGAACTAATAAAATTGTAGTTTGTATTT [CACACA_negctrl_site386] | 6.59 |
| TTATTATTTATTTTTTATTATTATTATTTTTTTTTA [XGTACX_negctrl_site76] | 6.59 |
| CATATATTTTGAAACACACACATATAAAATATACAT [CACACA_site6664] | 7.08 |
| AAGTATTTCCTAAAATGTACATATAAATAAGTATAT [XGTACX_site1282] | 6.97 |
| AAATCTTAATAAAGTTGTACATAATTATGTTTAATA [XGTACX_site3348] | 6.95 |
| TTAAAATTAAAATACGTACACACCTTATCTTTTTGG [CACACA_site7982] | 7.08 |
| GAAAAGATTTAAAAATGTACAAAAGAAAAAAAAAAA [XGTACX_site6916] | 6.81 |
| TGGTTATAATTGTACGCATGTAATTACATATTCTCT [TGCATGCA_site599] | 7.08 |
| AATATGCCTCCCCAAAAAAAATATATATATATTTAT [GTGCAC_negctrl_site716] | 7.37 |
| TATATTTAAATATATACACACATTATCATTTTCATA [CACACA_site1708] | 6.94 |
| TTTTTTACTATATCAATTACAAAACAAAAAAAAAAA [GTGCAC_negctrl_site683] | 7 |
| TATCATTTGGTCTTTTACTTTTTCTGTTTTTTTTTT [CACACA_negctrl_site976] | 6.8 |
| AAATATGTTTCAAAAAGTACATTTCTATCTTTTTTT [XGTACX_site7178] | 6.84 |
| TGATAAAATATTAAATTATTTCTTTATTTAAAGATT [CACACA_negctrl_site370] | 6.67 |
| AAATTATTATGAAATGGAAAATGCATAAATTGTTTT [XGTACX_negctrl_site206] | 6.77 |

| Sequence | gcPBM binding intensity (ln) |
| --- | --- |
| ATTAAATAATAATAATGTACGTATTATATTAATACA [XGTACX_site5439] | 7.15 |
| TAAAATTTAAAATATACACACAAAAAGTTATTACAA [CACACA_site4080] | 6.93 |
| CTCTTTAAAAATATGGGTACAAAAAAAAAAAAAATA [XGTACX_site6185] | 7.04 |
| ATTCTTTACTCATAAAATTATATTATATAAACTTTT [XGTACX_negctrl_site554] | 7.5 |
| AAAACAGTGACAACTCGTACTTATATTTTTTTTTGT [XGTACX_site4968] | 6.79 |
| AGGCCCTATGTTGTTACACACATAGAATGATACATC [CACACA_site1266] | 6.7 |
| CAAAGATAAAATGATGCACACAAAAGGGTGTAATAT [CACACA_site8499] | 7.3 |
| TATATTTATTTATATGTATGCATGTCTGTATATGCT [TGCATGCA_site339] | 6.88 |
| AAAGTACAATCATAATCACACGTGTCTATTATATAC [CACACA_site8103] | 6.84 |
| ACATGGTTTACACGTGCATGTGGATGACTGGACATT [TGCATGCA_site640] | 7.68 |
| AATACGACAAACAAATGTACAAATAAATATTCGCGT [XGTACX_site6427] | 6.9 |
| TGAGAAAATTAAAAGGTGCTCAGAAATTTTATATTA [GTGCAC_site9954] | 7.75 |
| TTTTCTTTTAATATTTTTAATAATTATATTTTGAAA [XGTACX_negctrl_site495] | 6.75 |
| AAATTACTAATGTGCACACATACTAACGTTTAAATA [CACACA_site3572] | 9.88 |
| AAAAATGTAAAGTGCGTGCACAAAATATTTGGAAAA | 9.43 |
| CACATATAGTTATATGCACACATCTTACACATATAT [CACACA_site3692] | 7.2 |
| TATCTGTATTTATATACACACATATTCTTTTTACAC [CACACA_site4798] | 7.11 |
| AAAATCACAAAACACACACACACAAAAAAAAAAAAA [CACACA_site1443] | 7 |
| GTTTGAAGAACTATAAATGTATAAATAAAAGTTTAG [TGCATGCA_negctrl_site222] | 6.88 |
| ATGGTGCAACATTATGCACACCGTTAAATAACTAAT [CACACA_site9280] | 11.8 |
| AAAAAAGTAAAAAAAGCACACACGAAAAAAAATAAA [CACACA_site2233] | 6.9 |
| CATGGGCAAATATTCTCACACATAAACATAAACATA [CACACA_site4597] | 7.07 |

| Sequence | gcPBM binding intensity (ln) |
| --- | --- |
| GGGAATTATGAAAAAAGTACAGAACAAAAGTAAAAG [XGTACX_site2861] | 7.17 |
| ATATAGTAAAATTATACACACATGAATTTTCCCATG [CACACA_site1770] | 6.89 |
| TACAAAAATGAAAAAAGTACATATCATTTAATATAA [XGTACX_site8066] | 6.92 |
| TTTTTTTTTTTTTTTTGTACTCATAAAAATATATTA [XGTACX_site3458] | 7.04 |
| CATATATATATATATACACACACACCGTCCGTGTTA [CACACA_site8975] | 7.34 |
| ATTACATGATATATCACACACACATATAAATATATA [CACACA_site2830] | 7.26 |
| GAATAAATAAATAAATGTACATATATATTTATTTAT [XGTACX_site243] | 6.8 |
| GTTCGAAGTATAATTTGTACATATAAAATGGTTCCC [XGTACX_site382] | 6.79 |
| ATATGTATTTATATATGTTTGAATTTTTTTTTTTTT [CACACA_negctrl_site5] | 6.83 |
| ATTTGATCAACAAAACGTACACATATTTTCATGTGT [XGTACX_site447] | 6.98 |
| ATTTTTGTGACTAAGACATGCATAAGAGTAAAGAAA [TGCATGCA_site619] | 7.65 |
| ACATATATTATATAACGTACATAACACTATTTCCTT [XGTACX_site6938] | 7.35 |
| TTTTTTTTTTGTAATTGTACTTTTTTAATACTTCTA [XGTACX_site4195] | 6.93 |
| TATACATATATATACACACACATATATATATATATA [CACACA_site4] | 9.01 |
| TATATATATATATTCACACATAAATATATGCACCCA [CACACA_site4263] | 11.6 |
| TAAGTCGCCAAAAGGTGTACACATAATGCATTATCA [XGTACX_site8852] | 6.91 |
| AGTATAGTTATAAATTGTACATATTATTTATTTTAT [XGTACX_site949] | 6.92 |
| TAATATCATTTAGACACACACTCTTACAATCTGTAA [CACACA_site2590] | 6.84 |
| AATCATTTATGGAAAGCATGCTAAATTAGAGTATAC [TGCATGCA_site172] | 7.03 |
| ATCTAAACCTTTTGAGCACACATATATATATATATA [CACACA_site8526] | 9.68 |
| ATGGGGAATAATGAATGTACACAAATAAAAAGTTGG [XGTACX_site4015] | 7.13 |
| TAAAAATAAAAATAACGTACATACATACTTATATAT [XGTACX_site3745] | 6.89 |
